In PubChem BioAssay AID1508623 (National Center for Advancing Translational Sciences (NCATS), 2021):
Among all 48,000 compounds or so, about 450 (0.94%) were called active. Another 19% or so got no clear call; they are omitted. Calls come from the whole dose curve; as a rule, active = well fitted inhibition curve with a large enough effect; inconclusive = small, poorly fitted or top-dose-only effect; inactive = no such curve, though single readings can be large or run the other way. The list shows a part of the results.

assay: Primary qHTS for Identification of Small Molecule Inhibitors of Huntingtin Promoter Activity; conditions: HEK293 HTT promoter firefly luciferase reporter (activity 0% = vehicle and -100% = no light), 24 h; series mostly up to 57.5 µM; activity change, negative = inhibition: at the top concentration; note: nearly all actives have a fitted effect of over 50% in size
Source text: Assay Provider: Russell L. Margolis M.D.
Department Neurology, Johns Hopkins University School of Medicine, Baltimore, MD
Huntington's Disease (HD) is a neurodegenerative disorder caused by a CAG repeat expansion in exon 1 of huntingtin (HTT). While there are currently no disease-modifying treatments for HD, recent efforts have focused on development of nucleotide-based therapeutics to lower HTT expression. As an alternative to siRNA or oligonucleotide methods, we hypothesized that suppression of HTT expression might be accomplished by small molecules that either (1) directly decrease HTT expression by suppressing HTT promoter activity or (2) indirectly decrease HTT expression by increasing the promoter activity of HTT-AS, the gene antisense to HTT that appears to inhibit expression of HTT.
We developed and employed a high throughput screen for modifiers of HTT and HTT-AS promoter activity using luminescent reporter HEK293 cells; of the 52,041 compounds tested, we identified 898 replicable hits. We used a rigorous stepwise approach to assess compound toxicity and the capacity of the compounds to specifically lower huntingtin protein in 5 different cell lines, including HEK293 cells, HD lymphoblastoid cells, mouse primary neurons, HD iPSCs differentiated into cortical-like neurons, and HD hESCs. We found no compounds which were able to lower huntingtin without lowering cell viability in all assays, though the potential efficacy of a few compounds at non-toxic doses could not be excluded.
SEQUENCE No. (1, 2, 3, etc.); […] (e.g., Cells, Incubation, Reagent, etc.); VALUE and DESCRIPTION.
1; Reagent; 4 uL; 2,500 Hek293 luciferase reporter cells per wells
3; Compound; 23 nL; Control inhibitor / compound library
5; Reagent; 2.5 uL; Firefly Luc reagent; Dual-Glo Luciferase Reporter Assay System (Promega)
6; Time; 10 min; room temperature incubation
7; Detection; Luminescence; FLuc
NOTES (numbers refer to sequence above)
1; High-throughput screening, measuring luminescence from a Hek293 luciferase reporter, was performed in 1,536 well white-walled tissue-culture treated plates. 2,500 cells were plated in 4 µL of Opti-MEM per well using a Multidrop Combi Reagent Dispenser (ThermoFisher).
2; Assay plates were cultured for 24 hours.
3; Control inhibitor (PTC124; final concentration of 50 uM) and compound library (at final concentrations of 460 nM - 57.5 uM) were added to the assay plate using the Kalypsis Pintool Robotic System equipped with 1536 pinheads.
4; Cells were then incubated for 24 hours at 37 degrees C prior to luminescence measurements.
5; In all cases, luminescence was measured using the Dual-Glo Luciferase Reporter Assay System (Promega) following the manufacturer's instructions.
6; Room temperature incubation.
7; Luminescence signal was obtained using the PerkinElmer ViewLux plate reader. Results were normalized to vehicle control (0% activity) and zero RLU (-100% activity).
Potency is the fitted concentration of half-maximal effect.

| SMILES | activity change, negative = inhibition | Potency |
| --- | --- | --- |
| Cc1nn(CCCC(=O)NCCc2ccc(Cl)cc2)c(=O)c2nn(-c3ccccc3)c(C)c12 | inactive: -3.72% |  |
| CCn1c(=O)c(C(=O)Nc2cc(OC)c(OC)c(OC)c2)nc2ccccc21 | inactive: 8.54% |  |
| COc1ccc(C2CC(=O)c3cc(-c4nc(-c5cccc([N+](=O)[O-])c5)cs4)c(=O)n(-c4ccccc4C)c3C2)cc1 (stereo not drawn) | inactive: -19.4% |  |
| Cc1ccc(-c2cc(NC(=O)COc3c(C)cc(C)cc3C)on2)cc1 | inactive: 30.1% |  |
| O=C(NCc1ccccc1F)c1cccc(NC(=O)N2CCSc3ncccc32)c1 | inactive: -29.4% |  |
| CCN(CC)CCOC(=O)c1ccc(N)cc1 | inactive: 3.13% |  |
| COc1cc(NC(=O)Cn2c(=O)n(CC3CCCO3)c(=O)c3cc(OC)c(OC)cc32)cc(OC)c1 (stereo not drawn) | inactive: -5.76% |  |
| CCOCCc1nn2c(=O)cc(COC(=O)c3ccc(NC(=O)c4ccc(F)cc4)cc3)nc2s1 | inactive: -20.1% |  |
| CCc1ccc(C2CC(=O)N(c3cccc(C(F)(F)F)c3)C3=C2C(=O)OC3)cc1 (stereo not drawn) | inactive: -17% |  |
| CC[C@H](C)C(=O)O[C@H]1C[C@@H](C)C=C2C=C[C@H](C)[C@H](CC[C@@H]3C[C@@H](O)CC(=O)O3)[C@H]21 | inactive: 18.5% |  |
| CC(=O)N1CCc2cc(CNC(=O)Nc3ccccc3C(F)(F)F)ccc21 | inactive: -1.88% |  |
| Clc1ccc(C(Cn2ccnc2)OCc2ccc(Sc3ccccc3)cc2)c(Cl)c1 (stereo not drawn) | inactive |  |
| COc1ccc2c(CNC3CCC(C)CC3)c(C(=O)O)n(Cc3ccccc3)c2c1 (stereo not drawn) | inactive: -12.1% |  |
| Cc1ccc(-c2cn3nc(N4CCC(C(=O)Nc5ccccc5C)CC4)sc3n2)cc1 | inactive: 17.5% |  |
| CCOc1ccccc1CNC(=O)C1CCN(Cc2cc3ccccc3n2Cc2ccccc2)CC1 | inactive: -0.0643% |  |
| Cc1ccc2oc(C(=O)Nc3ccc(S(=O)(=O)Nc4ncccn4)cc3)cc(=O)c2c1 | inactive: 35% [at 11.5 µM] |  |
| CN(C)S(=O)(=O)N(CC(=O)NCCSc1ccc(Cl)cc1)c1ccccc1 | inactive: -16.6% |  |
| CCCS(=O)(=O)c1nc(S(=O)(=O)c2ccc(C)cc2)c(NC(C)c2ccccc2)s1 (stereo not drawn) | inactive: -17.4% |  |
| Cc1cc(C)c2oc(C(=O)Nc3nc4ccc(Cl)cc4s3)cc(=O)c2c1 | inactive: -2.11% |  |
| O=C(COc1ccccc1F)Nc1ccc2nc(SCc3ccccc3)sc2c1 | inactive: -7.8% |  |
| CCC(=O)N1CCc2cc(S(=O)(=O)NCCC(=O)Nc3cccc(SC)c3)ccc21 | inactive: -17.5% |  |
| COc1ccc2oc(=O)c(-c3nc4ccc(C)cc4[nH]3)cc2c1 | inactive: 21.9% |  |
| Cc1ccc(-n2ncc(C(=O)N3CCN(c4cccc(C)c4C)CC3)c2C2CCNCC2)c(C)c1 | inactive: -5.01% |  |
| COc1ccc(Br)cc1CC1C(=O)Nc2ccccc21 (stereo not drawn) |  | active: 12.6 µM |

| SMILES | activity change, negative = inhibition | Potency |
| --- | --- | --- |
| CN(C(=O)NCc1noc2ccccc12)c1cccc(Cl)c1 | inactive: -16.2% |  |
| COc1ccccc1NC(=O)C1=C(C)Nc2nc(SCc3ccccc3Cl)nn2C1c1cccnc1 (stereo not drawn) | inactive: -2.95% |  |
| Cc1ccc(NC(=O)CN2CCN(C3CCCCC3)C(=O)C2=O)cc1C | inactive: -5.19% |  |
| Cc1ccc2c(c1)sc1nc(=O)n(-c3cccc(Cl)c3)c(=O)n12 | inactive: 34.9% |  |
| CCOC(=O)C1CCN(C(=O)Cn2nc(CC)n3c(cc4occc43)c2=O)CC1 | inactive: -9.98% |  |
| Cc1cc(Cl)ccc1NS(=O)(=O)c1cc2[nH]c(=O)c(=O)[nH]c2cc1C | inactive: -5.01% |  |
| Cc1ccc(-n2c(=O)[nH]c3sc4c(c3c2=O)CCNC4)cc1C | inactive: -16.2% |  |
| CCCCc1nn2c(C)c(-c3ccc(OCC)cc3)nc2s1 | inactive: -14.7% |  |
| COc1ccc(CN2C(=O)c3ccccc3C2C(=O)NC2CCCCCC2)c(OC)c1 (stereo not drawn) | inactive: 0% |  |
| Cc1ccc(NC(=O)C2CCN(S(=O)(=O)c3c(C)noc3C)CC2)cc1C | inactive: -14.4% |  |
| N#Cc1ccc(NC(=O)COCc2cc(-c3ccc(F)cc3)on2)cc1 | inactive: 4.11% |  |
| COC(=O)c1cc2oc(C)cc2n1Cc1ccc(Cl)cc1 | inactive: -13.1% |  |
| COC(=O)c1c(-c2cccs2)csc1NC(=O)COc1ccc(C(C)C)cc1 | inactive: -13.8% |  |
| CCOC(=O)C1CCN(C(=O)c2nn(-c3ccc(C)cc3)c(=O)n(C)c2=O)CC1 | inactive: -7.3% |  |
| CCN(CC)C(=O)C1CCN(C(=O)c2cnn(-c3ccccc3)c2-n2cccc2)CC1 | inactive: -18.5% |  |
| CCOC(=O)CSc1nc2ccccc2n2c(C)nnc12 | inactive: 12% |  |
| O=C(CSc1nccn1C1CCCC1)Nc1ccccc1 | inactive: 36.4% |  |
| Cc1ccc(Cl)cc1N1CCN(C(=O)c2cn(C)c3ccc(S(=O)(=O)N4CCCC4)cc3c2=O)CC1 | inactive: -29.6% |  |
| CCOc1ccc(-n2ccnc2SCC(=O)Nc2ccc(OC)cc2OC)cc1 | inactive: -33.9% |  |
| O=C(Cn1c(=O)n(-c2ccccc2)c(=O)c2c3c(sc21)CCCC3)Nc1ccc(F)cc1 | inactive: -5.01% |  |
| COc1ccccc1N1CCN(C(=O)c2cc3c(=O)n(Cc4cccnc4)ccc3nc2C)CC1 | inactive: -3.79% |  |
| Cc1ccccc1OCC(=O)Nc1nnc(S(=O)(=O)N(C)c2ccccc2)s1 | inactive: 0.553% |  |
| CCN1CCN(c2ncc3c(n2)CCN(Cc2ccc(C)s2)C3)CC1 | inactive: -15.3% |  |
| Oc1cccc2[nH]ccc12 | inactive: 15.6% |  |
